Results from the supplement of paper PMC11417369.
Some of the results follow.

system: PfHDP1 homeodomain (GST-tagged); experiment: gcPBM binding intensity (ln(normalized median fluorescence intensity)); higher = stronger DNA binding
In short: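 The highest Masliner-normalised natural-log median intensity across replicate spots of either probe orientation is reported as binding intensity. GST-tagged P. falciparum DNA-binding domains expressed in E. coli were applied for 1 h to an Agilent 4 × 180k array of primer-extended double-stranded 36-bp intergenic genomic probes plus negative controls, and bound protein was detected with Alexa488 anti-GST antibody and scanned at 488 nm.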

**Q.** “AATATAATATAAGGATCACACACAAACACCCATATA [CACACA_site8084]” was tested. Which “gcPBM binding intensity (ln)” value did it give?
**A.** 7.01

**Q.** With “TTTTATTCCTTCTTTGCACACGTTTAAAAATATATA [CACACA_site2899]” as the sequence, how does the “gcPBM binding intensity (ln)” value read?
**A.** 10.3

**Q.** How did the “gcPBM binding intensity (ln)” value turn out when “ATTGCATATAATGGCACACATAAATCCATAATATAT [CACACA_site297]” was run?
**A.** 6.5

**Q.** With “TGTGGTTACATGTGCACACACTTATTTCGTTCTTAT [CACACA_site4907]” as the sequence, how does the “gcPBM binding intensity (ln)” value read?
**A.** 10.3

**Q.** For “TAAATATATATATACACACACATACACAAAAAAAAA [CACACA_site3580]”, which “gcPBM binding intensity (ln)” value is on record?
**A.** 6.87

**Q.** “TTTATATATATATATATATATAATAAATGATACACA [TGCATGCA_negctrl_site392]” was tested. Which “gcPBM binding intensity (ln)” value did it give?
**A.** 6.89

**Q.** How did the “gcPBM binding intensity (ln)” value turn out when “TATTTTTTTTCTTATACACACCATGCATCAAACTAA [CACACA_site5208]” was run?
**A.** 7.76

**Q.** Which “gcPBM binding intensity (ln)” value does the source give for “TTTGCACCGTTTAAGTGTACAGAATTATGACATATA [XGTACX_site6735]” here?
**A.** 10.3

**Q.** Which “gcPBM binding intensity (ln)” value does the source give for “TCAAAAATATTCTGGAGTACCTTTTTAAAGGTATAG [XGTACX_site6893]” here?
**A.** 6.09

**Q.** How did the “gcPBM binding intensity (ln)” value turn out when “ATGACTCTCAAGTTTGCACACATTTATATTTTTTAA [CACACA_site2605]” was run?
**A.** 10.5

**Q.** “TATACATACCATAATGCATGTAAGAACAAATAACTG [TGCATGCA_site264]” was tested. Which “gcPBM binding intensity (ln)” value did it give?
**A.** 6.52

**Q.** With “AAAAAAAAAAAAAAGGTGCATACTTTGAATTAATAT [GTGCAC_site9401]” as the sequence, how does the “gcPBM binding intensity (ln)” value read?
**A.** 7.91

**Q.** Which “gcPBM binding intensity (ln)” value does the source give for “AATATAAATAATATATGTACATATATATATATATAT [XGTACX_site1021]” here?
**A.** 9.2

**Q.** With “AAAGTATTCTTTACACGTACATATATATAAATATAA [XGTACX_site7557]” as the sequence, how does the “gcPBM binding intensity (ln)” value read?
**A.** 6.65

**Q.** For “AATATAGATATAAAAAGTACATTATATATATATATA [XGTACX_site6899]”, which “gcPBM binding intensity (ln)” value is on record?
**A.** 8.95

**Q.** With “TTTGTATATATTAATGTACACACATGCGTATGTTCG [CACACA_site9193]” as the sequence, how does the “gcPBM binding intensity (ln)” value read?
**A.** 6.71

**Q.** Which “gcPBM binding intensity (ln)” value does the source give for “AGAATTGTTGTTAAAGAATTCTTTTTTATCCTTCCC [CACACA_negctrl_site1820]” here?
**A.** 6.45

**Q.** Which “gcPBM binding intensity (ln)” value does the source give for “ATATATATATATGAATCACACACAAAAAATATAGAG [CACACA_site9298]” here?
**A.** 9.01

**Q.** Which “gcPBM binding intensity (ln)” value does the source give for “ATAAAATAATGAAAAACACACATTTTTATTTGTATA [CACACA_site3369]” here?
**A.** 6.18

**Q.** Which “gcPBM binding intensity (ln)” value does the source give for “AAGATTATAAATATATGTACATAAATATATTATATA [XGTACX_site8056]” here?
**A.** 6.47

**Q.** For “ATTGTTTTTTTTTCTTTGTGGAATGAATGAATATAT [XGTACX_negctrl_site603]”, which “gcPBM binding intensity (ln)” value is on record?
**A.** 6.92

**Q.** “AATAACATGTTATATACACACATTATGAAGTCTTCA [CACACA_site746]” was tested. Which “gcPBM binding intensity (ln)” value did it give?
**A.** 6.48

**Q.** With “ATAATACTACCTACATGTACTTATATATAAATGAAT [XGTACX_site3417]” as the sequence, how does the “gcPBM binding intensity (ln)” value read?
**A.** 7.09

**Q.** For “TTTTTTTTTTCAATGGCACACATTTTAGATTTATGC [CACACA_site1074]”, which “gcPBM binding intensity (ln)” value is on record?
**A.** 6.18

**Q.** For GTTTTAACAAAATTAGTGCATTTATCAATTATATAA, which “gcPBM binding intensity (ln)” value is on record?
**A.** 8.23

**Q.** How did the “gcPBM binding intensity (ln)” value turn out when AAAGAATCAAGAATAGTGCAAATATGTATAACCTTT was run?
**A.** 9.08

**Q.** How did the “gcPBM binding intensity (ln)” value turn out when “ACATCAAGCGGACACACACACACACCGACAGACACA [CACACA_site4361]” was run?
**A.** 6.77

**Q.** For “GTATATCATATTTCATGTACACAAAAAAATAAAAAT [XGTACX_site704]”, which “gcPBM binding intensity (ln)” value is on record?
**A.** 7.06

**Q.** “ACAAAATTTACAAAATGTACAAAATTTACAAAGTAT [XGTACX_site6463]” was tested. Which “gcPBM binding intensity (ln)” value did it give?
**A.** 6.19

**Q.** How did the “gcPBM binding intensity (ln)” value turn out when “ATATATTTGATAAGAGTGCACAAATACATACATACA [GTGCAC_site9704]” was run?
**A.** 9.65

**Q.** For “TATATATATTATATATGTACATATTATATATATATA [XGTACX_site7300]”, which “gcPBM binding intensity (ln)” value is on record?
**A.** 8.49

**Q.** Which “gcPBM binding intensity (ln)” value does the source give for “TATATATATAAACACACACACATATATATATATATA [CACACA_site4584]” here?
**A.** 9.34

**Q.** Which “gcPBM binding intensity (ln)” value does the source give for TTTAAAATACAGAAGGTGCATTTAACATATTTGTAT here?
**A.** 8.79

**Q.** With “AAAAAAAAAAAATGCACACATATATTTCCATATACA [CACACA_site1471]” as the sequence, how does the “gcPBM binding intensity (ln)” value read?
**A.** 9.96

**Q.** With “ATATATATATATATATGTACTAATTAATATTTCGAG [XGTACX_site580]” as the sequence, how does the “gcPBM binding intensity (ln)” value read?
**A.** 9.33

**Q.** For “AATATATATTTCTAAGATAAAACCCAAGGATAAAAA [CACACA_negctrl_site735]”, which “gcPBM binding intensity (ln)” value is on record?
**A.** 6.44

**Q.** Which “gcPBM binding intensity (ln)” value does the source give for “AACATATTTTTTCTTAAACACACACCGATATATATA [CACACA_site8919]” here?
**A.** 6.92

**Q.** For “TCTGTAAATATGTATACACACATATCTGATCAATAT [CACACA_site5743]”, which “gcPBM binding intensity (ln)” value is on record?
**A.** 6.98

**Q.** For “TTTTTTATGATTAACACACACACAAAAAAAAAAAAA [CACACA_site4130]”, which “gcPBM binding intensity (ln)” value is on record?
**A.** 6.55

**Q.** For “TCATGTAACCATTCATGTACTCAAAAAAAAAAAAAA [XGTACX_site1027]”, which “gcPBM binding intensity (ln)” value is on record?
**A.** 6.32

**Q.** Which “gcPBM binding intensity (ln)” value does the source give for “TTTTATATATATATATATATATATATATATGTATAT [CACACA_negctrl_site173]” here?
**A.** 7.85

**Q.** How did the “gcPBM binding intensity (ln)” value turn out when “AAATGAAAGAACAGCACACATATATATTATATATAA [CACACA_site2002]” was run?
**A.** 6.63

**Q.** How did the “gcPBM binding intensity (ln)” value turn out when “AAAAAAAAAACAAATACACACGCACCCAAAAAAAAA [CACACA_site8166]” was run?
**A.** 7.1

**Q.** “AAAACACGCGGACACACACACACACGCCCACATATA [CACACA_site7105]” was tested. Which “gcPBM binding intensity (ln)” value did it give?
**A.** 6.99

**Q.** How did the “gcPBM binding intensity (ln)” value turn out when “AACATAAATTACTTTTTACACACTAATATAAAATAC [CACACA_site8297]” was run?
**A.** 6.54

**Q.** “AATTGCTCGATATATGCACACAGTTTTGTTATTTTT [CACACA_site8465]” was tested. Which “gcPBM binding intensity (ln)” value did it give?
**A.** 10.5

**Q.** With “ACTTTCAAGGATGTACGTACATATGTATTTTATAAC [XGTACX_site6714]” as the sequence, how does the “gcPBM binding intensity (ln)” value read?
**A.** 6.75

**Q.** With “ATTTCATTAAAGATTACATGCAATTCTATATTATTT [TGCATGCA_site260]” as the sequence, how does the “gcPBM binding intensity (ln)” value read?
**A.** 6.47

**Q.** For “AATTAATTTATTTTATAAATAGTTAGATCGTCATAA [GTGCAC_negctrl_site660]”, which “gcPBM binding intensity (ln)” value is on record?
**A.** 6.33

**Q.** “AGGTCATACATAAAATGTACATATATATAAATATAT [XGTACX_site7147]” was tested. Which “gcPBM binding intensity (ln)” value did it give?
**A.** 6.54

**Q.** How did the “gcPBM binding intensity (ln)” value turn out when “ACAAGAATACACCACGCACACACACTAGAGAAAAAA [CACACA_site9276]” was run?
**A.** 7.42

**Q.** Which “gcPBM binding intensity (ln)” value does the source give for “TGAACACCCAAATACACACACTCAAAAAAAAAAAAG [CACACA_site5467]” here?
**A.** 6.34

**Q.** “ATAAAAATAAAAGACGCATGTTCTTAAAATAAGAAC [TGCATGCA_site189]” was tested. Which “gcPBM binding intensity (ln)” value did it give?
**A.** 6.03

**Q.** How did the “gcPBM binding intensity (ln)” value turn out when “GTGTGATCTTTTGAAAGTACATTTTTTTTTTTTTTT [XGTACX_site6311]” was run?
**A.** 6.33

**Q.** How did the “gcPBM binding intensity (ln)” value turn out when “AAACAAAATGGTAACACACACATATATATATATATA [CACACA_site1939]” was run?
**A.** 9.37

**Q.** Which “gcPBM binding intensity (ln)” value does the source give for “ATATATATATATAATGCACACATTATGAATTATGTA [CACACA_site3384]” here?
**A.** 10.8

**Q.** “TTATATATATGTAATTGTACTTTTAATTTTTTTTTA [XGTACX_site4357]” was tested. Which “gcPBM binding intensity (ln)” value did it give?
**A.** 6.26
